Results on 110 molecules are retold here after PubChem BioAssay AID1240 (Sanford-Burnham Center for Chemical Genomics, 2008).

Each structure is given as a SMILES string. Values joined by “and” are separate entries in the source; they are usually repeats but may differ in a detail not shown here. Equal values may be shown once. Out of some 50,000 compounds screened, about 800 (1.6%) showed an effect of 50% or more. This is one part of the list.

This test has as its target Bcl-2-like protein 10 (Homo sapiens) (UniProt Q9HD36). Put plainly: TR3 peptide-Bcl-B binding displacers, biochemical primary FP assay, phenotype converters (AID 1240).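 Note: 0% = Bcl-B with tracer peptide and DMSO and 100% = tracer peptide lacking Bcl-B.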 As to conditions: GST-Bcl-B / FITC-TR3 peptide fluorescence polarization; stronger effect = higher value; compound at 3.75 mg/L.
Chain of UniProt Q9HD36 (Q9HD36 whole entry, looked up): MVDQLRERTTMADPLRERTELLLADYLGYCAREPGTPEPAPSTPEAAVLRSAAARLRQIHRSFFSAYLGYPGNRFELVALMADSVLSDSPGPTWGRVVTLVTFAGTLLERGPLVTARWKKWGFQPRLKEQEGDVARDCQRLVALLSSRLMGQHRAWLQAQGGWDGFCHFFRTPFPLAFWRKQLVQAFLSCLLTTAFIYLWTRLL
Consider `CCN(CC)CC(C(=O)N(CC)CC)P(=O)(c1ccccc1)c1ccccc1` (stereo not given), for which the displacement is 0.4%.

As to `O=C(Cn1cc(/C=C2\NC(=O)NC2=O)c2ccccc21)Nc1ccccc1`, the displacement worked out at 7.5%.

With `O=C1/C(=C\c2cccs2)CC2CC1C/C(=C/c1cccs1)C2=O`, the displacement is 2.6%.

On to `CC(=O)c1ccc(NC(=O)c2ccc(CN3CCc4ccccc4C3)cc2)cc1`, for which the displacement turned out to be 7%.

In the case of `C/C(=N\NC(=O)c1ccc(C)cc1)c1ccc(Cl)cc1`, the displacement came out at 14.8%.

For the molecule `O=C(Nc1nc2ccccc2s1)c1ccc(-c2ccccc2)cc1`, the displacement was 5.2%.

Take `CCOc1cccc(C(=O)Nc2ccc(N(CC)CC)cc2)c1`: the displacement was determined as 9.5%.

For `CC(=O)Nc1ccc(NC(=O)COc2ccc(Cl)cc2C)cc1`, the displacement was -2.4%.

As for `O=C(C[n+]1cccc2ccccc21)c1cc2ccccc2oc1=O`, the displacement is 24%.

As for `O=C(Cc1ccccc1)NCC1COc2ccccc2O1` (stereo not given), the displacement was 3.2%.

Turning to `O=C(NCc1ccccc1)C1CC(=O)N(c2ccc(Br)cc2)C1` (stereo not given), the displacement is -5.1%.

As for `COc1ccc(C(=O)N/C(=C/c2cccs2)C(=O)NCCN2CCOCC2)cc1`, the displacement was determined as 6.3%.

As to `COc1ccc(/C(O)=C2\C(=O)C(=O)N(CCc3ccccc3)C2c2ccc(F)cc2)cc1` (stereo not given), the displacement was found to be 6.3%.

Turning to `Cc1ccc(C(=O)Nc2ccccc2C(=O)NCCC(=O)O)cc1`, the displacement is -3.6%.

Consider `CCCN(c1ccccc1C)S(=O)(=O)c1ccc(Cl)cc1`, for which the displacement is 8.6%.

For `Cc1nc(-c2ccccc2)nc(N/N=C/c2ccc(N(C)C)cc2)c1C`, the displacement is -4.5%.

In the case of `Cc1cc(Cl)ccc1OC(C)C(=O)Nc1c(Cl)cccc1Cl` (stereo not given), the displacement is 11.6%.

As to `CCN1CCc2c(sc(NC(=O)Nc3ccc(Cl)c(Cl)c3)c2C(N)=O)C1`, the displacement came out at 111%.

On to `C=C(C)C1CCC(C)=C1CC(C)(C)/C=N\n1cnnc1` (stereo not given), for which the displacement turned out to be 8%.

`COc1ccc(CC(=O)N=Nc2c(O)n(CN3CCCC3)c3ccccc23)cc1`: the displacement is -2.3%.

As to `COc1ccc(CNC(=O)CSc2nc3ccccc3[nH]2)cc1`, the displacement was determined as 8.5%.

Turning to `CCC(c1ccccc1)c1nnc(NC(=O)Nc2cccc(Cl)c2)s1` (stereo not given), the displacement was -0.8%.

Consider `COc1ccc(CN2CCN(C(=O)c3ccco3)CC2)cc1OCc1ccccc1`, for which the displacement was -9.4%.

For the molecule `CC(C)Cc1cc(-c2ccccc2)c(C#N)c(N)n1`, the displacement came to 13.1%.

As to `O=C(/C=C/c1ccco1)Nc1ccc(Cl)c(Cl)c1`, the displacement was -12%.

Take `COc1cc(OC)c(NC(=O)c2ccccc2C)cc1Cl`: the displacement is -12%.

Take `O=C(/C=C/c1ccc(-c2ccc(Cl)cc2Cl)o1)NCCCN1CCOCC1`: the displacement was -13.4%.

In the case of `O=C(CSc1ccc(C(F)(F)F)cc1[N+](=O)[O-])Nc1ccccc1`, the displacement is -8.7%.

As for `O=C(Nc1ccccc1)Nc1cccc2cccnc12`, the displacement is -4.2%.

For the molecule `O=C(Cc1ccc(Cl)cc1)Nc1nccs1`, the displacement worked out at 11.5%.

With `COc1cccc(-c2cc(C(=O)O)c3cc(Br)ccc3n2)c1`, the displacement stood at 4.5%.

As for `COc1ccc(/C(N)=N/OC(=O)COc2ccc(C)cc2Br)cc1OC`, the displacement was found to be 5.4%.

Consider `CCOc1ccc(N(CC(=O)NCc2ccncc2)S(=O)(=O)c2ccccc2)cc1`, for which the displacement was found to be 3.7%.

Regarding `COc1ccccc1NC(=O)CSc1nnc(NC(=O)CSc2nnc3n(N)cnn23)s1`, the displacement is -3.9%.

As to `COc1ccc([N+](=O)[O-])cc1NC(=O)C1C2CCC(C2=C(C)C)C1C(=O)O` (stereo not given), the displacement was -8.2%.

With `O=C(NCCOc1ccc(Cl)cc1)c1ccc([N+](=O)[O-])cc1`, the displacement was -20.2%.

On to `COc1cc2c(cc1OC)C(C)N(CC(=O)O)CC2` (stereo not given), for which the displacement was -18.7%.

Turning to `CN1C(=O)NC(=O)/C(=C\c2ccc(N3CCCC3)cc2)C1=O`, the displacement was 15.1%.

Consider `COc1ccc(S(=O)(=O)Nc2nc3ccccc3s2)cc1[N+](=O)[O-]`, for which the displacement was -6.5%.

Take `Cc1ccnc(NC(=O)/C=C/c2ccc(-c3ccccc3[N+](=O)[O-])o2)c1`: the displacement is 8.7%.

Take `COCCNC(=O)c1cc2nc(-c3ccccc3)cc(-c3ccccc3)n2n1`: the displacement stood at 14.1%.

As for `COc1ccc(OC)c(CN2CCN(Cc3ccco3)CC2)c1`, the displacement was -1%.

As for `COc1ccccc1OCCNC(=O)c1cc(SC)ccc1Cl`, the displacement was -7.1%.

With `O=C(O)CC(C(=O)O)P(=O)(c1ccccc1)c1ccccc1` (stereo not given), the displacement was 12.8%.

Regarding `CCOc1ccc2nc(Cc3ccccc3)[nH]c2c1`, the displacement was -6.1%.

Consider `CC1=C(C(=O)OCCc2ccccc2)C(c2ccc(F)cc2)C2=C(CCCC2=O)N1` (stereo not given), for which the displacement is -3.8%.

In the case of `CCc1nnc(NS(=O)(=O)c2ccc(N=Cc3c(C)[nH]n(-c4ccc(C)cc4)c3=O)cc2)s1`, the displacement came to 5.9%.

Take `COC(=O)CN1C(=O)C(=C(C#N)C#N)c2ccccc21`: the displacement is -10.8%.

Take `CC(=O)CC(=O)Nc1ccc(OCc2ccccc2)cc1`: the displacement is -3.1%.

As for `O=C(NCCOC(=O)c1cccs1)c1cccnc1`, the displacement was -7.4%.

Turning to `COc1ccc(CC(=O)O/N=C(\N)c2cccnc2)cc1OC`, the displacement stood at 8.7%.

On to `Brc1ccc2ncnc(NCCc3ccccc3)c2c1`, for which the displacement is -5.7%.

In the case of `Nc1nnc(SCC(=O)c2ccc([N+](=O)[O-])cc2)s1`, the displacement stood at 2.8%.

With `Cc1cc(C)c2oc(-c3ccc(NC(=O)c4cccc([N+](=O)[O-])c4C)cc3)nc2c1`, the displacement was -3.8%.

`Cc1cccc2c(=O)oc(-c3ccccc3Cl)nc12`: the displacement amounted to 4.4%.

For `Cc1cccc(/C=C2\C(=O)NC(=O)N(c3ccc(Cl)cc3)C2=O)c1`, the displacement was -32.6%.

Regarding `CC(C)(C)C1=CC2(C=C(C(C)(C)C)C1=O)Nc1cccc3cccc(c13)N2`, the displacement is -2%.

`COc1cc(C=C2C(=O)NC(=S)NC2=O)ccc1OC(C)C`: the displacement was 17%.

Regarding `COc1ccc(C(N)=O)cc1NC(=O)c1cc(C(F)(F)F)cc(C(F)(F)F)c1`, the displacement is -4.5%.

For the molecule `COc1cccc(C(=O)Nc2cc([N+](=O)[O-])ccc2O)c1`, the displacement worked out at 23.2%.

As for `CCCCCC12CCC(O)(CC1)C/C2=N/NS(=O)(=O)c1ccc(C)cc1`, the displacement is 13.2%.

Consider `O=[N+]([O-])c1ccc(C2NN=C(Cc3ccccc3)S2)cc1` (stereo not given), for which the displacement was -6.7%.

Consider `O=C1/C(=C/c2ccc(Cl)cc2)SC(=S)N1C1CCCCC1`, for which the displacement was -7%.

Take `O=C1C=C(NCCc2c[nH]c3ccccc23)CC(c2ccccc2)C1` (stereo not given): the displacement was -2.8%.

Consider `CCOC(=O)C(C#N)C(c1ccc(C)cc1)C1CCOC(C)(CC)C1` (stereo not given), for which the displacement is -10.4%.

As to `COc1ccc(/C=N/N(C)c2cc(C)nc(-c3ccccc3O)n2)cc1OC`, the displacement was found to be 0.3%.

As for `Cc1[nH]n(-c2ccccc2)c(=O)c1C(=O)c1ccc([N+](=O)[O-])cc1`, the displacement is -12.3%.

For the molecule `CCN1C(=O)/C(=C2/Oc3ccc4ccccc4c3N2C)OC1=S`, the displacement was determined as 10.8%.

In the case of `O=C1NC(=O)N(c2ccccc2)C(=O)/C1=C\c1ccc(-c2ccc([N+](=O)[O-])cc2Cl)o1`, the displacement stood at 11.5%.

`COc1ccc(/C=C2/SC(=S)N(CC(=O)O)C2=O)cc1Br`: the displacement turned out to be 5.1%.

Regarding `C=CCNC(=O)/C(=C\c1ccc2c(c1)OCO2)NC(=O)c1ccco1`, the displacement is -1%.

Turning to `COc1ccc(N2C(=O)c3ccccc3C2(O)c2ncc[nH]2)cc1` (stereo not given), the displacement worked out at 7.3%.

As to `COc1cc([N+](=O)[O-])ccc1NC(=S)NC(=O)/C=C/c1ccccc1`, the displacement was determined as 12.6%.

As for `CC(=O)NC(NC(C)=O)c1ccccc1`, the displacement stood at 1.9%.

For `O=C(NCC1CCCO1)c1sc2ccccc2c1Cl` (stereo not given), the displacement was 7.2%.

For `O=CN1CCN(c2nc(-c3ccccc3)c3cc(Cl)ccc3n2)CC1`, the displacement was 113%.

As for `Cc1cccc(N2C(=O)NC(=O)/C(=C/c3ccc(-c4ccccc4[N+](=O)[O-])o3)C2=O)c1`, the displacement was -15.1%.

`CS(=O)(=O)N(Cc1ccc(C(=O)NCc2ccc(Cl)cc2Cl)cc1)c1ccccc1`: the displacement was found to be 1.4%.

For the molecule `COCCOC(=O)c1c(C)oc2ccc(OCc3cc(C)ccc3C)cc12`, the displacement amounted to 10.8%.

Turning to `Nn1c(NCc2ccccc2)nc2ccccc21`, the displacement is -3.8%.

As for `Cc1ccc(C(=O)NCc2ccccc2)cc1S(=O)(=O)N1CCOCC1`, the displacement is -6.6%.

With `Cc1ccc(C)c(S(=O)(=O)Nc2ccc(OC(=O)c3ccc(Cl)cc3)cc2)c1`, the displacement stood at 6.9%.

Regarding `CCOC(=O)c1c(NC(=O)CCc2ccccc2)sc2c1CCC2`, the displacement was 3.4%.

On to `O=[N+]([O-])c1ccc(S(=O)(=O)NCCOc2ccccc2Cl)cc1`, for which the displacement amounted to 16.1%.

Consider `CCSc1nc(-c2ccccc2)nc(C(Cl)Cl)n1`, for which the displacement is -0.1%.

Regarding `O=C(COc1ccc2ccccc2c1)Nc1cc(Cl)cc(Cl)c1`, the displacement is -8%.

`COC(=O)C1=C(C)N=c2s/c(=C\c3cc(OC)c(OC)cc3[N+](=O)[O-])c(=O)n2C1c1ccccc1` (stereo not given): the displacement came to 38.4%.

`COc1ccccc1NC(=O)c1ccccc1C(F)(F)F`: the displacement was -5.7%.

Turning to `CC(C)(C)N1C(=O)NC(=O)C(=Cc2ccc([N+](=O)[O-])s2)C1=O`, the displacement is 8.3%.

`COc1cc(/C=C2\SC(=S)N(CCCCCCCCCCC(=O)O)C2=O)ccc1O`: the displacement worked out at 5.1%.

Consider `c1ccc(Oc2cccc(CSc3nnnn3-c3ccccc3)c2)cc1`, for which the displacement was 1%.

In the case of `O=C(CSc1ccccc1)Nc1nnc(CSc2ccccc2)s1`, the displacement is -9.5%.

Regarding `O=C1c2ccccc2-n2c1cc(C=Nc1ccc(Cl)cc1)c2O`, the displacement came to 112%.

Turning to `O=C(CCCOc1ccccc1)Nc1ccccc1`, the displacement was -2.5%.

With `COC(=O)CN(c1cccc(Br)c1)S(C)(=O)=O`, the displacement stood at 6.3%.

In the case of `COC(=O)c1ccc(NC(=O)CC2SCCNC2=O)cc1` (stereo not given), the displacement was -0.2%.

For the molecule `O=C(/C=C/c1ccc(-c2ccc([N+](=O)[O-])cc2)o1)c1cc2ccccc2o1`, the displacement is 190%.

As for `Cc1ccc(S(=O)(=O)N(C)c2ccc(Br)cc2C(=O)c2ccccc2)cc1`, the displacement amounted to 9%.

As for `C=CCOc1ccc(/C=C2\C(=O)NC(=O)N(C)C2=O)cc1Br`, the displacement was -49.3%.

Regarding `COc1cc(NC(=O)c2ccccc2[N+](=O)[O-])ccc1NC(=O)c1cc2ccccc2o1`, the displacement is -0.3%.

On to `COCC(O)CN1CCN(c2ccc([N+](=O)[O-])cc2Cl)CC1` (stereo not given), for which the displacement is 14.8% and -1.4%.

Take `O=C(Cc1cccs1)Nc1cccc2c1C(=O)N(c1ccccc1)C2=O`: the displacement was 0.7%.

With `C=CCN1C(=O)/C(=C\c2ccc(O)c(OCC)c2)C(=O)NC1=S`, the displacement is 9.2%.

On to `Cc1ccc(NC(=O)/C(=C/c2ccccc2)c2ccccc2)cc1C`, for which the displacement was determined as 12.1%.

Turning to `O=Cc1ccccc1OCc1ccc(F)cc1`, the displacement was -1.8%.

As for `CC1=NN(c2ccccc2)C(=O)/C1=C\c1ccc(C)o1`, the displacement was -16.6%.

`COc1ccccc1NC(=S)NC(=O)c1ccc(Cl)cc1`: the displacement is -6%.

Consider `COC(=O)C1=C(C)N=c2s/c(=C/c3ccc(F)cc3)c(=O)n2C1c1ccc(OC)cc1` (stereo not given), for which the displacement worked out at 5.7%.

With `CCOc1cc(C(=O)N2CCN(c3ccc([N+](=O)[O-])cc3)CC2)cc(OCC)c1OCC`, the displacement was -3.4%.

Regarding `CCc1ccc(S(=O)(=O)N=Nc2c(O)n(CC)c3ccccc23)cc1`, the displacement is -5.3%.
